According to ChEMBL document CHEMBL4888484, “Replenishing the malaria drug discovery pipeline: Screening and hit evaluation of the MMV Hit Generation Library 1 (HGL1) against asexual blood stage Plasmodium falciparum ,using a nano luciferase reporter read-out” (2022):
Out of some 150,000 compounds screened, about 540 (0.36%) showed an effect of 50% or more. The list shows a part of the results.

System: Plasmodium falciparum
Experiment: Primary screen in NF54 nanoGlo assay, in single point, at 2uM, 72h; a lower Z score goes with more inhibition
Type: functional, Erythrocyte
Conditions: timepoint 72 hour

Row | SMILES | % Inhibition | Z score
1 | Cn1cc(C(=O)N2CCCC2)c(-c2ccco2)n1 | -8% | 1.07
2 | Cc1nccn1CCCN(C)C(=O)Nc1ccncc1F | -5% | 0.57
3 | Cc1noc(CNC(=O)C(=O)Nc2ccc(F)cc2Cl)n1 | -1% | 0.1
4 | Cc1cnn(C2CN(Cc3cnc(C)s3)C2)c1 | -8% | 0.99
5 | C#CCNC(=O)C[C@@H]1c2nc(NC(=O)C(C)(C)C)sc2C[C@@H]2[C@](C)(CO)[C@H](O)CC[C@]21C | 9% | -1.02
6 | C[C@H](CNC(=O)OC(C)(C)C)NC(=O)c1ccc(Br)c(F)c1 | 11% | -1.13
7 | COCCN1C(=O)c2c(NC(C)=O)c3cc(F)ccc3n2C[C@@]1(C)C(=O)NC1CCCCCC1 | -1% | 0.1
8 | O=C(NCCOc1ccccc1)c1ccc(OCc2ccccc2)cc1 | -2% | 0.25
9 | O=C(Nc1nncs1)c1occc1-c1ccccc1 | -6% | 0.51
10 | Cn1ncc2c(N3CCCC3)nc(N3CCC(N4CCCCC4)CC3)nc21 | 6% | -1.18
11 | CN(C)[C@@H](CNc1cc(C(F)(F)F)ccn1)c1cccnc1 | -5% | 0.44
12 | CCOc1ccccc1CN1CCc2cc(OC)c(OC)cc2[C@@H]1c1cccc(Cl)c1 | -6% | 1.18
13 | CCO[C@@H](C)c1nc(CN(C)C(=O)C(C)(C)C)cs1 | -6% | 0.8
14 | Cc1noc(C)c1CN(C)S(=O)(=O)Cc1noc2ccccc12 | -12% | 1.93
15 | Cc1cc(C(=O)N2CCCCCCNC(=O)[C@@H]3C[C@@H](c4nc(Cc5ccccc5)no4)C[C@@H]32)n(C)n1 | 5% | -0.57
16 | C[C@H](NC(=O)c1ccco1)C(=O)Nc1cc(S(=O)(=O)N2CCCC2)ccc1OCC(F)(F)F | 1% | -0.1
17 | Cc1ccc(CN[C@H]2CCS(=O)(=O)C2)o1 | -4% | 0.54
18 | CN(Cc1ccncn1)C(=O)CCc1nc2ccccc2s1 | -8% | 1.58
19 | CC(C)c1ncc(OCc2ccccc2)c(C(=O)O)n1 | -1% | 0.14
20 | Cc1cn2c(CNC[C@H](C)CN3CCCCC3)c(C)nc2s1 | -13% | 1.29
21 | CCN(CCN1CCCC1)C(=O)[C@H](OC)c1ccccc1 | 0% | -0.02
22 | Cc1cc(CNC(=O)C#CC2CCN(C(=O)OC(C)(C)C)CC2)no1 | -5% | 0.93

Row | SMILES | % Inhibition | Z score
23 | O=C(CS(=O)(=O)CC1CCCCC1)N1CCC(c2ccccc2)=N1 | -3% | 0.51
24 | O=C(Cc1ccccc1F)N[C@H]1CCN(c2nccn3cnnc23)C1 | -18% | 2.36
25 | Cc1ncc(S(=O)(=O)NC(=O)C[C@@]2(C)CC2(Cl)Cl)s1 | 2% | -0.3
26 | COc1ccc(Cc2nc(Cn3cnc4ccccc4c3=O)no2)cc1 | -7% | 0.85
27 | Cn1c(COc2ccccc2-c2nccs2)nnc1C1CC1 | -12% | 0.98
28 | Cc1nc(NC(=O)Nc2cc([C@H]3CCCOC3)[nH]n2)sc1C | -5% | 0.43
29 | Cn1cc(S(=O)(=O)NCc2ccccc2)c2cccnc21 | 5% | -0.93
30 | CN(C(=O)c1ccc(N2CCOCC2)nn1)c1ccccc1 | -4% | 0.67
31 | O=C1CC[C@@H]2CN(C(=O)c3cncnc3C3CC3)c3cccc1c32 | -7% | 1.26
32 | CC(C)c1cc(CNC(=O)N2CCCC[C@H]2c2cccc(F)c2)no1 | 23% | -4.62
33 | Cc1nc(NC(=O)NC2CCC(C)(O)CC2)nn1C (stereo unspecified) | -7% | 0.92
34 | COC1CN(c2ncnc3ccccc23)C1 | -8% | 0.87
35 | Cc1ccc(C#N)c(N2CCC3(CCC(=O)N(CCc4ccncc4)C3)CC2)n1 | -13% | 1.71
36 | Cc1nc2c(s1)CCC[C@@H]2NC(=O)c1ocnc1C | -16% | 2.46
37 | Cc1cccc(-c2nc3c4ccccc4nc(NCc4ccc(F)cc4)n3n2)c1 | -9% | 1.66
38 | C[C@@H]1CN(C[C@@H]2CN(Cc3ccc(Cl)c(F)c3)C[C@@H]2CO)C[C@H](C)O1 | -5% | 0.79
39 | CCN1CN(C(=O)N[C@@H](C)CCC(C)C)CC1=O | -3% | 0.26
40 | Nc1ccc(Oc2ccc(-c3cn[nH]c3)cc2)nc1 | -5% | 0.49
41 | N#Cc1c(-c2cccnc2)cc(-c2ccccc2OCC(N)=O)nc1N | -4% | 0.76
42 | C=CCC(CO)Nc1ccnc(NC(CO)CC=C)n1 (stereo unspecified) | -1% | 0.22
43 | COc1ccc(Cl)cc1C(=O)N1CCn2nnc(CO)c2C1 | -2% | 0.3
